Source: PubChem BioAssay AID493208 (National Center for Advancing Translational Sciences (NCATS), 2011)
About 340 (0.77%) of roughly 44,000 compounds were called active. Roughly 5% stayed inconclusive and do not appear here. Calls come from the whole dose curve; as a rule, active = well fitted inhibition curve with a large enough effect; inconclusive = small, poorly fitted or top-dose-only effect; inactive = flat fitted curve, though single readings scatter. The list shows a part of the results.

Experiment: Acumen qHTS Assay for Inhibitors of the mTORC1 Signaling Pathway in MEF (Tsc2-/-, p53-/-) Cells: Sytravon;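 note: plate controls were DMSO for no effect and rapamycin for full effect; nearly all actives have a fitted effect of over 50% in size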
Conditions: phospho-rpS6 immunofluorescence/PI, 24 h; series mostly up to 38.3 µM; activity change, negative = inhibition: at the top concentration
How it was run: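 Tsc2-/-, p53-/- MEFs (empty-vector stable line) in DMEM + 10% FBS were treated with compounds 24 h at 37 degree Celsius, fixed, and immunostained for phospho-rpS6 (Alexa-488) with propidium iodide counterstain. Laser-scanning cytometry gave % positive cells, normalized against 7.5 nM rapamycin and DMSO.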

Activity change, negative = inhibition, inactive:
CCOC(=O)c1cc(-c2ccccc2)n(CCCC(=O)Nc2ccc(C)c(Cl)c2)c1C -5.99%, Cc1ccc(-n2c(=O)c3c(C)c(C(=O)N(C)C)sc3n(CC(=O)N(C)c3ccccc3)c2=O)cc1C -0.761%, Cc1ccc(C)c(NC(=O)CSc2nc3nccnc3c(=O)n2CCc2c[nH]c3ccccc23)c1 -0.857%, CCc1cccc(C)c1NC(=O)CN1CCN(Cc2ccccc2Cl)S1(=O)=O 0.0322%, CCc1ccc(NC(=O)Cn2c(=O)c3cccn3c3ccccc32)cc1 4.59%, O=C(Nc1ccc(-c2nc3cc(Cl)ccc3o2)cc1)c1cc(Br)ccc1Cl -28.7%, COc1cc(C(=O)NC2(C(F)(F)F)C(=O)NC(C)=C2C#N)cc(OC)c1OC (stereo unspecified) 1.75%, CCN(CC)S(=O)(=O)c1ccc2c(c1)N(CC(=O)N1CCN(c3cccc(C)c3)C(C)C1)C(=O)CO2 (stereo unspecified) 0.416%, CCN(C(=O)CSc1nc2ccccc2c2nc(CCn3c(C)nc4ccccc43)nn12)c1cccc(C)c1 -1.09%, COc1ccc(-c2csc3nc(-c4ccc(Cl)cc4)oc(=O)c23)cc1 1.59%, Cc1cccc(NC(=O)CCn2cnnn2)c1 -3.94%, CC(=O)c1ccc(N2CCN(C(=O)Nc3ccc(C)cc3)CC2)cc1 -1.04%, Cc1ccc(Nc2c(-c3ccc(N4CCOCC4)cc3)nc3ccc(C)cn23)cc1 1.12%, Cn1c(=O)oc2cc(S(=O)(=O)NC(CC(=O)O)c3cccc(Br)c3)ccc21 (stereo unspecified) -7.99%, COc1ccc(NC(=O)CSc2nnc(N)s2)cc1 8.63%, CCC(C)n1c(SCC(=O)Nc2ccccc2C(=O)OC)nc2ccsc2c1=O (stereo unspecified) -7.05%, O=C(NCc1c(-n2cccc2)sc2c1CCCC2)Nc1cccc(C(F)(F)F)c1 -2.58%, COCCCNC(=O)CCCn1c(SCC(=O)c2ccc(Br)cc2)nc2c(sc3ccccc32)c1=O -8.69%, Cc1ccc(C(=O)NCC(c2ccc(Cl)cc2)N2CCCCC2)cc1 (stereo unspecified) -0.22%, CCc1ccc(NC(=O)C2CCCN(S(=O)(=O)c3ccc4c(c3)oc(=O)n4C)C2)cc1 (stereo unspecified) 1.19%, CCOc1ccc(C(=O)N2CC(=O)Nc3ccc(C)cc3C2c2ccc(F)cc2)cc1OCC (stereo unspecified) 5.68%, COc1cccc(CNC(=O)c2cccc(N3CCCS3(=O)=O)c2)c1 5.84%, Cc1ccc(Cl)c2sc(NC(=O)c3ccc(S(=O)(=O)N4CCCC4)cc3)nc12 4.48%, CC(C)(C)OC(=O)N1CCC(c2c(C(=O)N3CCCCC3)cnn2-c2ccc(F)cc2)CC1 -7.18%, COc1cccc(NC(=O)c2oc3ccc(S(=O)(=O)N(C)C4CCCCC4)cc3c2C)c1 -0.683%, Cc1ccc(C)c(NC(=O)CSc2nc3ccccc3nc2N2CCOCC2)c1 -3.55%
